Experimental data reported in ChEMBL document CHEMBL4888484, “Replenishing the malaria drug discovery pipeline: Screening and hit evaluation of the MMV Hit Generation Library 1 (HGL1) against asexual blood stage Plasmodium falciparum ,using a nano luciferase reporter read-out” (2022).
In all, about 150,000 compounds went through this assay and about 540 (0.36%) showed an effect of 50% or more. This is one part of the list.

system: Plasmodium falciparum; assay: Primary screen in NF54 nanoGlo assay, in single point, at 2uM, 72h; a lower Z score goes with more inhibition; type: functional, Erythrocyte; conditions: timepoint 72 hour

Row | Compound | % Inhibition [%] | Z score
1 | COc1c(CN[C@@H](C(=O)N2CCCC2)c2ccccc2)c(C)nn1C | -14 | 2.76
2 | Cc1ccc(F)c(C(=O)N[C@H]2CCOC[C@@H]2OCC2CC2)c1Cl | -7 | 1.27
3 | O=C(c1cccc(N2CCCC2=O)c1)N1CCc2ccccc2C1 | -15 | 1.32
4 | O=C1CN(C(=O)NC2CC3CC3C2)CN1CCC(F)(F)F (centres undefined) | -1 | 0.12
5 | CC(C)(C)c1ccnc(NC(=O)N[C@@H](CO)C(C)(C)C)n1 | -6 | 0.93
6 | CCC1(CC)C(OC)CC1N(C)c1nnc(C(F)F)o1 (centres undefined) | -3 | 0.63
7 | Cc1ccc(-c2nnc(N3CCC(C(=O)NCc4ccc(F)c(Cl)c4)CC3)o2)cc1 | -9 | 1.42
8 | CN(C(=O)C1=CC(c2ccc3c(c2)OCO3)=NS(=O)(=O)N1C)c1ccccc1 | -9 | 1.72
9 | CCn1c2c(c(=O)n3ncc(C(=O)N4CCC(Cc5ccccc5)CC4)c13)CNCC2 | 0 | -0.05
10 | CCNS(=O)(=O)[C@H]1CCN(C(=O)NCC2(C(F)F)CC2)C1 | -11 | 1.33
11 | CC(C)(C)C(=O)N1CCC[C@H]1c1nc(C2CCC2)no1 | -7 | 0.79
12 | C[C@@H](CNC(=O)c1cc(-n2cccn2)ccc1Cl)n1ccnc1 | -2 | 0.4
13 | O=C1CC(N2C(=O)[C@@H]3CC[C@@H](c4ccccc4)N3C2=O)CN1C1CC1 (some centres undefined) | 6 | -0.73
14 | Cc1cc(Br)cc(S(=O)(=O)Nc2ccc3ncc(C)n3c2)c1 | 2 | -0.43
15 | CC1CCCC(NC(=O)c2ccc3c(c2)OCO3)C1C (centres undefined) | 9 | -1.64
16 | O=C(CCN1CCCCO1)NC(Cc1ccccn1)[C@H]1C[C@@H](O)C1 (some centres undefined) | 4 | -0.77
17 | O=C(c1cn(Cc2ccccc2)nc1OCc1ccccc1)N1CCC(Cc2ccccc2)CC1 | -15 | 1.66
18 | Fc1ccc(Oc2cc(N3CCCCCC3)ncn2)c(F)c1 | -4 | 0.55
19 | COCC[C@H](Nc1nc(C)ns1)C(N)=O | 4 | -0.49
20 | Cn1nccc1CNC(=O)CCc1ccc(Br)cc1 | -6 | 1.07
21 | CCc1cccc2c(C3=CCN(C(=O)NC[C@H]4COCCO4)CC3)c[nH]c12 | 30 | -0.46

Row | Compound | % Inhibition [%] | Z score
22 | Fc1cccc2nc(N3CCN(c4ccnnc4)CC3)oc12 | 5 | -0.97
23 | O=C(NC1CC1)C1CCN(C(=O)C2CC3CCC2C3)CC1 (centres undefined) | 0 | -0.01
24 | Cc1ccc(S(=O)(=O)Nc2cnc(N3CCCCCCC3)c(C(=O)O)c2)cc1C | -17 | 1.63
25 | CN1CCCC[C@H](CC(=O)N2CCN(c3ccccn3)CC2)C1=O | -12 | 2.38
26 | CCn1ncc(CN(C)c2ncc(C#N)c(N)n2)c1C | 0 | -0.03
27 | C[C@@H](C(=O)Nc1cccc(S(=O)(=O)N2CCCCC2)c1)N1CCN(c2ccccn2)CC1 | -1 | 0.11
28 | CNC(=O)c1nn[nH]c1NC(=O)C[C@H](C)c1ccccc1C | 10 | -1.18
29 | NC(=O)C1CCN(C(=O)c2nnn(-c3ccccc3)n2)CC1 | -10 | 1.42
30 | Cc1nc2c(N3C[C@H]4CC[C@H]3C4)ncnc2o1 | 15 | -1.94
31 | CCS(=O)(=O)c1ccc(-c2nc([C@H]3CCO[C@@H]3C(C)(C)C)no2)cc1 | -14 | 2.08
32 | COc1cccc(C2Nc3ccc(C)cc3[C@H]3OCC[C@@H]23)c1OC1CCCC1 (some centres undefined) | -12 | 1.96
33 | CCCCn1nc(C2CC2)nc1Cc1ccc(OC)c(OC)c1 | -12 | 1.47
34 | Cc1cnccc1CN(C)C(=O)[C@H](C)N1CCN(C)CC1 | -6 | 1.14
35 | Cc1ccc(CNC(=O)c2ccncc2)s1 | -6 | 0.78
36 | O=C(N[C@H]1CC[C@H](Oc2ccccn2)CC1)[C@H](O)c1ccccc1 | -2 | 0.27
37 | Cc1cccc([C@H](C(=O)O)N2CCC(Oc3ncccn3)CC2)c1 | -5 | 0.8
38 | CC(C)(C)OC(=O)NC[C@@]12CCC[C@@H]1CN(C(=O)c1cccc3c1OCO3)C2 | -4 | 0.67
39 | O=C(CCc1ccc2c(c1)OCO2)N1CCC2(CC1)[C@H](O)C[C@@H]2OCCO | -10 | 1.28
40 | COc1ccc(N(CC(=O)NCC#N)Cc2ccco2)cc1F | -14 | 1.42
41 | Cc1nc(CNC(=O)N2CCC(COc3cc(Cl)cc(Cl)c3)CC2)no1 | -10 | 1.38
42 | CO[C@@]1(c2nnc3n2CCN(C(=O)OC(C)(C)C)C(C)(C)C3)CCOC1 | -11 | 1.46
